This continues a long series; more values of the same kind are listed elsewhere.
Tested on: 766 cancer cell lines
Assay: Large-scale cell-line viability measurements (766 cancer cell lines, 72 h, AUC)
Type: cell-based, human
Experimental: Cell lines were treated for 72 hours with concentrations ranging from 66.4 μM-2 nM in 2-fold step dilutions.
To characterize cellular sensitivity to DNMDP further, 766 genomically characterized cancer cell lines were screened for DMNDP sensitivity at concentrations ranging from 66.4 μM to 2 nM in 2-fold dilution steps for 72 hours. From these cell lines, 22 cell lines were categorized as sensitive with a robust Z-score lower than −4, which represented multiple lineages including multiple melanoma cell lines, amongst others (Table 1).
The sensitivity of […] cancer cell lines (CCLs) was measured drawn from 23 different lineages to DNMDP. Each cell line was plated in its preferred media in white opaque 1536-plates at a density of 500 cells/well. After incubating overnight, DNMDP was added by acoustic transfer at 16 concentrations ranging from 66.4 μM-2 nM in 2-fold steps in duplicate (Labcyte Echo 555, Labcyte Inc., Sunnyvale, Calif.). After 72 hours treatment, cellular ATP levels were measured as a surrogate for viability (CELLTITERGLO®, Promega Corporation, Madison, Wis.) according to manufacturer's protocols using a ViewLux Microplate Imager (PerkinElmer, Waltham, Mass.) and normalized to background (media-only) and vehicle (DMSO)-treated control wells.
Concentration response curves were fit using nonlinear fits to 2- or 3-parameter sigmoid functions through all 16 concentrations with the low-concentration asymptote set to the DMSO-normalized value, and an optimal 8-point dose curve spanning the range of compound-sensitivity was identified. The area under the 8-point dose curve (AUC) was computed by numeric integration as a metric for sensitivity for further analysis. Similar sensitivity measurements have been obtained for a collection of 480 other compounds, enabling analyses that identify cell lines responding uniquely to DNMDP (see Broad Institute Cancer Therapeutics Response Portal, a dataset to identify comprehensively relationships between genetic and lineage features of human cancer cell lines and small-molecule sensitivities for complete list of compounds).

[1] = cell line NCIH508, LARGE INTESTINE, 72 hours
[2] = cell line NCIH716 (LARGE INTESTINE)
[3] = cell line NCIH747 (LARGE INTESTINE)
[4] = cell line NCIH889, LUNG, 72 hours
[5] = cell line NCIH929 (HAEMATOPOIETIC AND LYMPHOID TISSUE)
[6] = cell line NCIH1092, LUNG, 72 hours
[7] = cell line NCIH2171, LUNG, 72 hours
[8] = cell line NCIH2196, LUNG, 72 hours
[9] = cell line NCIH2444, LUNG, 72 hours
[10] = cell line NMCG1, CENTRAL NERVOUS SYSTEM, 72 hours
[11] = cell line NUDHL1, HAEMATOPOIETIC AND LYMPHOID TISSUE, 72 hours

CCN(CC)c1ccc(C2=NNC(=O)CC2C)cc1[N+](=O)[O-] (stereo not drawn) [DNMDP, 6-(4-(diethylamino)-3-nitrophenyl)-5-methyl-4,5-dihydropyridazin-3(2H)-one]
Robust Z-score (cell line NCIH460 (LUNG)): 0.1786
DNMDP AUC [1]: 7.2176
Robust Z-score [1]: 0.6119
DNMDP AUC (cell line NCIH526 (LUNG)): 7.0825
Robust Z-score (cell line NCIH526 (LUNG)): 0.4701
DNMDP AUC (cell line NCIH596 (LUNG)): 6.7123
Robust Z-score (cell line NCIH596 (LUNG)): 0.08151
DNMDP AUC (cell line NCIH650 (LUNG)): 6.7194
Robust Z-score (cell line NCIH650 (LUNG)): 0.08896
DNMDP AUC (cell line NCIH661 (LUNG)): 7.0832
Robust Z-score (cell line NCIH661 (LUNG)): 0.4708
DNMDP AUC [2]: 6.5964
Robust Z-score [2]: −0.04015
DNMDP AUC (cell line NCIH727 (LUNG)): 6.6253
Robust Z-score (cell line NCIH727 (LUNG)): −0.009814
DNMDP AUC [3]: 6.8075
Robust Z-score [3]: 0.1814
DNMDP AUC (cell line NCIH810 (LUNG)): 6.9222
Robust Z-score (cell line NCIH810 (LUNG)): 0.3018
DNMDP AUC (cell line NCIH838 (LUNG)): 6.6448
Robust Z-score (cell line NCIH838 (LUNG)): 0.01065
DNMDP AUC (cell line NCIH841 (LUNG)): 6.7036
Robust Z-score (cell line NCIH841 (LUNG)): 0.07237
DNMDP AUC [4]: 7.4952
Robust Z-score [4]: 0.9033
DNMDP AUC [5]: 6.5755
Robust Z-score [5]: −0.06209
DNMDP AUC [6]: 7.139
Robust Z-score [6]: 0.5294
DNMDP AUC (cell line NCIH1299 (LUNG)): 6.9991
Robust Z-score (cell line NCIH1299 (LUNG)): 0.3825
DNMDP AUC (cell line NCIH1341 (LUNG)): 6.7337
Robust Z-score (cell line NCIH1341 (LUNG)): 0.104
DNMDP AUC (cell line NCIH1373 (LUNG)): 7.0318
Robust Z-score (cell line NCIH1373 (LUNG)): 0.4169
DNMDP AUC (cell line NCIH1623 (LUNG)): 6.862
Robust Z-score (cell line NCIH1623 (LUNG)): 0.2386
DNMDP AUC (cell line NCIH1650 (LUNG)): 6.825
Robust Z-score (cell line NCIH1650 (LUNG)): 0.1998
DNMDP AUC (cell line NCIH1694 (LUNG)): 6.7095
Robust Z-score (cell line NCIH1694 (LUNG)): 0.07857
DNMDP AUC (cell line NCIH1755 (LUNG)): 6.771
Robust Z-score (cell line NCIH1755 (LUNG)): 0.1431
DNMDP AUC (cell line NCIH1781 (LUNG)): 6.6169
Robust Z-score (cell line NCIH1781 (LUNG)): −0.01863
DNMDP AUC (cell line NCIH1792 (LUNG)): 7.0701
Robust Z-score (cell line NCIH1792 (LUNG)): 0.4571
DNMDP AUC (cell line NCIH1838 (LUNG)): 6.8375
Robust Z-score (cell line NCIH1838 (LUNG)): 0.2129
DNMDP AUC (cell line NCIH2023 (LUNG)): 6.6954
Robust Z-score (cell line NCIH2023 (LUNG)): 0.06377
DNMDP AUC (cell line NCIH2029 (LUNG)): 6.6826
Robust Z-score (cell line NCIH2029 (LUNG)): 0.05033
DNMDP AUC (cell line NCIH2030 (LUNG)): 6.5688
Robust Z-score (cell line NCIH2030 (LUNG)): −0.06912
DNMDP AUC (cell line NCIH2052 (PLEURA)): 6.8321
Robust Z-score (cell line NCIH2052 (PLEURA)): 0.2073
DNMDP AUC (cell line NCIH2085 (LUNG)): 6.8317
Robust Z-score (cell line NCIH2085 (LUNG)): 0.2068
DNMDP AUC (cell line NCIH2087 (LUNG)): 6.6806
Robust Z-score (cell line NCIH2087 (LUNG)): 0.04823
DNMDP AUC (cell line NCIH2126 (LUNG)): 6.9473
Robust Z-score (cell line NCIH2126 (LUNG)): 0.3282
DNMDP AUC (cell line NCIH2170 (LUNG)): 6.6424
Robust Z-score (cell line NCIH2170 (LUNG)): 0.008135
DNMDP AUC [7]: 7.3416
Robust Z-score [7]: 0.742
DNMDP AUC [8]: 7.7386
Robust Z-score [8]: 1.159
DNMDP AUC (cell line NCIH2291 (LUNG)): 7.0654
Robust Z-score (cell line NCIH2291 (LUNG)): 0.4521
DNMDP AUC (cell line NCIH2342 (LUNG)): 6.6346
Robust Z-score (cell line NCIH2342 (LUNG)): −5.248E−05
DNMDP AUC (cell line NCIH2405 (LUNG)): 6.7785
Robust Z-score (cell line NCIH2405 (LUNG)): 0.151
DNMDP AUC [9]: 7.2606
Robust Z-score [9]: 0.657
DNMDP AUC (cell line NCIH2452 (PLEURA)): 6.9169
Robust Z-score (cell line NCIH2452 (PLEURA)): 0.2963
DNMDP AUC [10]: 7.1746
Robust Z-score [10]: 0.5668
DNMDP AUC [11]: 7.2677
Robust Z-score [11]: 0.6645
DNMDP AUC (cell line NUGC3 (STOMACH)): 6.9527

Source: patent US11207320B2, “Compositions and methods for cancer expressing PDE3A or SLFN12” (The Broad Institute, Inc., priority 2015, dated 2021)
